# According to patent US9873709B2 (priority 2013, dated 2018):
# Molecular target: isolated recombinant JAK1 kinase domain (Homo sapiens (Human), UniProt P23458)
# Conditions: read-out: JAK1 Ki; isolated recombinant JAK1 kinase domain, 25 μM ATP
row,Structure (SMILES),Ki [nM]
1,"CN1CCC(N(C)C(=O)c2ccc(Nc3nc4c(C5=CCN(C(=O)C6C(C)(C)C6(C)C)CC5)cccn4n3)cc2)CC1 [Example 2-161, N-methyl-N-(1-methyl-4-piperidyl)-4-[[8-[1-(2,2,3,3-tetramethylcyclopropanecarbonyl)-3,6-dihydro-2H-pyridin-4-yl]-[1,2,4]triazolo[1,5-a]pyridin-2-yl]amino]benzamide]",8.38
2,"CN1CCC(N(C)C(=O)c2ccc(Nc3nc4c(C5=CCN(C(=O)N6CCS(=O)(=O)CC6)CC5)cccn4n3)cc2)CC1 [Example 2-162, 4-[[8-[1-(1,1-dioxo-1,4-thiazinane-4-carbonyl)-3,6-dihydro-2H-pyridin-4-yl]-[1,2,4]triazolo[1,5-a]pyridin-2-yl]amino]-N-methyl-N-(1-methyl-4-piperidyl)benzamide]",37.3
3,"CCOC(=O)N1CC=C(c2cccn3nc(Nc4ccc(C(=O)N5CC(CN)C5)cc4)nc23)CC1 [Example 2-165, ethyl 4-[2-[4-[3-(aminomethyl)azetidine-1-carbonyl]anilino]-[1,2,4]triazolo[1,5-a]pyridin-8-yl]-3,6-dihydro-2H-pyridine-1-carboxylate]",1.61
4,"CCOC(=O)N1CC=C(c2cccn3nc(Nc4ccc(C(=O)N5CCCC(c6ccccn6)C5)cc4)nc23)CC1 (stereo not shown) [Example 2-166, ethyl 4-[2-[4-[3-(2-pyridyl)piperidine-1-carbonyl]anilino]-[1,2,4]triazolo[1,5-a]pyridin-8-yl]-3,6-dihydro-2H-pyridine-1-carboxylate]",3.57
5,"CCOC(=O)N1CC=C(c2cccn3nc(Nc4ccc(C(=O)NCCN5CC(C)OC(C)C5)cc4)nc23)CC1 (stereo not shown) [Example 2-167, ethyl 4-[2-[4-[2-(2,6-dimethylmorpholin-4-yl)ethylcarbamoyl]anilino]-[1,2,4]triazolo[1,5-a]pyridin-8-yl]-3,6-dihydro-2H-pyridine-1-carboxylate]",1.98
6,"CCOC(=O)N1CC=C(c2cccn3nc(Nc4ccc(C(=O)N5CCN(CCO)CC5)cc4)nc23)CC1 [Example 2-168, ethyl 4-[2-[4-[4-(2-hydroxyethyl)piperazine-1-carbonyl]anilino]-[1,2,4]triazolo[1,5-a]pyridin-8-yl]-3,6-dihydro-2H-pyridine-1-carboxylate]",2.53
7,"CCOC(=O)N1CC=C(c2cccn3nc(Nc4ccc(C(=O)NC(C)c5cccc(C)n5)cc4)nc23)CC1 (stereo not shown) [Example 2-170, ethyl 4-[2-[4-[1-(6-methyl-2-pyridyl)ethylcarbamoyl]anilino]-[1,2,4]triazolo[1,5-a]pyridin-8-yl]-3,6-dihydro-2H-pyridine-1-carboxylate]",1.39
8,"CCOC(=O)N1CC=C(c2cccn3nc(Nc4ccc(C(=O)N(Cc5ccccn5)C5CC5)cc4)nc23)CC1 [Example 2-171, ethyl 4-[2-[4-[cyclopropyl(2-pyridylmethyl)carbamoyl]anilino]-[1,2,4]triazolo[1,5-a]pyridin-8-yl]-3,6-dihydro-2H-pyridine-1-carboxylate]",3.51
9,"CCOC(=O)N1CC=C(c2cccn3nc(Nc4ccc(C(=O)N(C)Cc5ncccc5C)cc4)nc23)CC1 [Example 2-173, ethyl 4-[2-[4-[methyl-[(3-methyl-2-pyridyl)methyl]carbamoyl]anilino]-[1,2,4]triazolo[1,5-a]pyridin-8-yl]-3,6-dihydro-2H-pyridine-1-carboxylate]",4.96
10,"CCOC(=O)N1CC=C(c2cccn3nc(Nc4ccc(C(=O)N5CC6(CCN(C)CC6)C5)cc4)nc23)CC1 [Example 2-175, ethyl 4-[2-[4-(7-methyl-2,7-diazaspiro[3.5]nonane-2-carbonyl)anilino]-[1,2,4]triazolo[1,5-a]pyridin-8-yl]-3,6-dihydro-2H-pyridine-1-carboxylate]",1.19
11,"CCOC(=O)N1CC=C(c2cccn3nc(Nc4ccc(C(=O)NCc5cccnc5C)cc4)nc23)CC1 [Example 2-177, ethyl 4-[2-[4-[(2-methyl-3-pyridyl)methylcarbamoyl]anilino]-[1,2,4]triazolo[1,5-a]pyridin-8-yl]-3,6-dihydro-2H-pyridine-1-carboxylate]",0.87
12,"CCOC(=O)N1CC=C(c2cccn3nc(Nc4ccc(C(=O)NCc5cncc(C)c5)cc4)nc23)CC1 [Example 2-178, ethyl 4-[2-[4-[(5-methyl-3-pyridyl)methylcarbamoyl]anilino]-[1,2,4]triazolo[1,5-a]pyridin-8-yl]-3,6-dihydro-2H-pyridine-1-carboxylate]",0.97
13,"CCOC(=O)N1CC=C(c2cccn3nc(Nc4ccc(C(=O)NCCN5CCC(C)CC5)cc4)nc23)CC1 [Example 2-179, ethyl 4-[2-[4-[2-(4-methyl-1-piperidyl)ethylcarbamoyl]anilino]-[1,2,4]triazolo[1,5-a]pyridin-8-yl]-3,6-dihydro-2H-pyridine-1-carboxylate]",2.34
14,"CCOC(=O)N1CC=C(c2cccn3nc(Nc4ccc(C(=O)N5CC6CNCC(C5)O6)cc4)nc23)CC1 [Example 2-180, ethyl 4-[2-[4-(9-oxa-3,7-diazabicyclo[3.3.1]nonane-3-carbonyl)anilino]-[1,2,4]triazolo[1,5-a]pyridin-8-yl]-3,6-dihydro-2H-pyridine-1-carboxylate]",5.56
15,"CCOC(=O)N1CC=C(c2cccn3nc(Nc4ccc(C(=O)N5CCC6(CCNCC6)CC5)cc4)nc23)CC1 [Example 2-181, ethyl 4-[2-[4-(3,9-diazaspiro[5.5]undecane-3-carbonyl)anilino]-[1,2,4]triazolo[1,5-a]pyridin-8-yl]-3,6-dihydro-2H-pyridine-1-carboxylate]",2.74
16,"CCOC(=O)N1CC=C(c2cccn3nc(Nc4ccc(C(=O)N5CCCC6(CCCN6)CC5)cc4)nc23)CC1 (stereo not shown) [Example 2-182, ethyl 4-[2-[4-(1,9-diazaspiro[4.6]undecane-9-carbonyl)anilino]-[1,2,4]triazolo[1,5-a]pyridin-8-yl]-3,6-dihydro-2H-pyridine-1-carboxylate]",3.2
17,"CCOC(=O)N1CC=C(c2cccn3nc(Nc4ccc(C(=O)N5CCC6(CC5)CNC6)cc4)nc23)CC1 [Example 2-184, ethyl 4-[2-[4-(2,7-diazaspiro[3.5]nonane-7-carbonyl)anilino]-[1,2,4]triazolo[1,5-a]pyridin-8-yl]-3,6-dihydro-2H-pyridine-1-carboxylate]",3.51
18,"O=C(CCC(F)(F)F)N1CC=C(c2cccn3nc(Nc4ccc(C(=O)N5CCC6(CCNCC6)C5)cc4)nc23)CC1 [Example 2-187, 1-[4-[2-[4-(2,8-diazaspiro[4.5]decane-2-carbonyl)anilino]-[1,2,4]triazolo[1,5-a]pyridin-8-yl]-3,6-dihydro-2H-pyridin-1-yl]-4,4,4-trifluoro-butan-1-one]",1.6

# The remaining molecules from weak to strong by Ki, led by results:
row,Ki [nM],Structure (SMILES)
1,15,"CN1CCC(N(C)C(=O)c2ccc(Nc3nc4c(C5=CCN(C(=O)C6CC(C)(O)C6)CC5)cccn4n3)cc2)CC1 (stereo not shown) [Example 2-164, 4-[[8-[1-(3-hydroxy-3-methyl-cyclobutanecarbonyl)-3,6-dihydro-2H-pyridin-4-yl]-[1,2,4]triazolo[1,5-a]pyridin-2-yl]amino]-N-methyl-N-(1-methyl-4-piperidyl)benzamide]"
2,11.1,"CN1CCC(N(C)C(=O)c2ccc(Nc3nc4c(C5=CCN(C(=O)C6CC6(C)C)CC5)cccn4n3)cc2)CC1 (stereo not shown) [Example 2-160, 4-[[8-[1-(2,2-dimethylcyclopropanecarbonyl)-3,6-dihydro-2H-pyridin-4-yl]-[1,2,4]triazolo[1,5-a]pyridin-2-yl]amino]-N-methyl-N-(1-methyl-4-piperidyl)benzamide]"
3,3.35,"CCOC(=O)N1CC=C(c2cccn3nc(Nc4ccc(C(=O)N5CCC6(CCCN6)CC5)cc4)nc23)CC1 [Example 2-183, ethyl 4-[2-[4-(1,8-diazaspiro[4,5]decane-8-carbonyl)anilino]-[1,2,4]triazolo[1,5-a]pyridin-8-yl]-3,6-dihydro-2H-pyridine-1-carboxylate]"
4,2.74,"CCOC(=O)N1CC=C(c2cccn3nc(Nc4ccc(C(=O)NCCN(C)C)cc4)nc23)CC1 [Example 2-169, ethyl 4-[2-[4-[2-(dimethylamino)ethylcarbamoyl]anilino]-[1,2,4]triazolo[1,5-a]pyridin-8-yl]-3,6-dihydro-2H-pyridine-1-carboxylate]"
5,2.51,"CCOC(=O)N1CC=C(c2cccn3nc(Nc4ccc(C(=O)N(CC)Cc5ccncc5)cc4)nc23)CC1 [Example 2-174, ethyl 4-[2-[4-[ethyl(4-pyridylmethyl)carbamoyl]anilino]-[1,2,4]triazolo[1,5-a]pyridin-8-yl]-3,6-dihydro-2H-pyridine-1-carboxylate]"
6,1.53,"CCOC(=O)N1CC=C(c2cccn3nc(Nc4ccc(C(=O)NCCc5ccncc5)cc4)nc23)CC1 [Example 2-172, ethyl 4-[2-[4-[2-(4-pyridyl)ethylcarbamoyl]anilino]-[1,2,4]triazolo[1,5-a]pyridin-8-yl]-3,6-dihydro-2H-pyridine-1-carboxylate]"
7,1.35,"CN1CCC(N(C)C(=O)c2ccc(Nc3nc4c(C5=CCN(C(=O)CC(F)(F)F)CC5)cccn4n3)cc2)CC1 [Example 2-163, N-methyl-N-(1-methyl-4-piperidyl)-4-[[8-[1-(3,3,3-trifluoropropanoyl)-3,6-dihydro-2H-pyridin-4-yl]-[1,2,4]triazolo[1,5-a]pyridin-2-yl]amino]benzamide]"
8,1.35,"O=C(CCC(F)(F)F)N1CC=C(c2cccn3nc(Nc4ccc(C(=O)N5CC6(CCCNC6)C5)cc4)nc23)CC1 [Example 2-186, 1-[4-[2-[4-(2,8-diazaspiro[3.5]nonane-2-carbonyl)anilino]-[1,2,4]triazolo[1,5-a]pyridin-8-yl]-3,6-dihydro-2H-pyridin-1-yl]-4,4,4-trifluoro-butan-1-one]"
9,0.68,"O=C(NC1COC2(CCNCC2)C1)c1ccc(Nc2nc3c(C4=CCN(C(=O)CCC(F)(F)F)CC4)cccn3n2)cc1 (stereo not shown) [Example 2-188, N-(1-oxa-8-azaspiro[4.5]decan-3-yl)-4-[[8-[1-(4,4,4-trifluorobutanoyl)-3,6-dihydro-2H-pyridin-4-yl]-[1,2,4]triazolo[1,5-a]pyridin-2-yl]amino]benzamide]"
10,0.41,"CN1CCN(C(=O)C2CN(C(=O)c3ccc(Nc4nc5c(C6=CCN(C(=O)CCC(F)(F)F)CC6)cccn5n4)cc3)C2)CC1 [Example 2-159, 4,4,4-trifluoro-1-[4-[2-[4-[3-(4-methylpiperazine-1-carbonyl)azetidine-1-carbonyl]anilino]-[1,2,4]triazolo[1,5-a]pyridin-8-yl]-3,6-dihydro-2H-pyridin-1-yl]butan-1-one]"
